From publication PMC7819943, “Rice protein-binding microarrays: a tool to detect cis-acting elements near promoter regions in rice”
The list shows a part of the results.

Biological target: T1, OsWOX13 (Oryza sativa, UniProt Q5QMM3 1-267)
T1 sequence: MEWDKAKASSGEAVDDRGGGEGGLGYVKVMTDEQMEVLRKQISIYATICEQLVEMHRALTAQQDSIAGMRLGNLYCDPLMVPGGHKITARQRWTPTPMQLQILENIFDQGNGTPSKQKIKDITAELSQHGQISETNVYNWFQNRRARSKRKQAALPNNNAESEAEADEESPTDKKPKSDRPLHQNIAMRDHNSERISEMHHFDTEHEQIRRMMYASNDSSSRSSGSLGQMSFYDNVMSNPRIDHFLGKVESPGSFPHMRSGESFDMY
Test: protein-binding microarray (RPBM); PBS, 2% BSA, 51.3 ng/ul salmon testes DNA, 50 uM zinc acetate, 200 nM TF, 25 C, 1 h; high values mean tight binding
Details: protein: recombinant; tags: N-terminal polyhistidine and DsRed monomer fusion (pET32a); label: CyDye5-dUTP incorporated in the synthesized complementary strand; 3' TTTTT single-stranded linker to array surface; dsDNA, one strand shown
Method in brief: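 The binding signal for each feature is its fluorescence intensity in arbitrary units. An Axon 4000B scanner was used to read a custom Agilent array that had been made double-stranded with Cy5-dUTP primer extension, blocked with 2% BSA, incubated at 25 °C for 1 h with 200 nM protein in PBS, 2% BSA, salmon testes DNA and 50 µM zinc acetate, and washed. The protein was an N-terminal polyhistidine–DsRed transcription factor fusion from E. coli BL21-CodonPlus, purified on Ni–NTA.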

Sequence	binding signal
GCTAACTTGAGATGATTAGACTCCTGATTGTAGCTCATGACGGAGTCACCTAGTGCAG	27100 fluorescence intensity (a.u.)
CATGATGATAGTGATAGCAACTCAAGCAATACTAACGCACCGGAGTCACCTAGTGCAG	14700 fluorescence intensity (a.u.)
TTTAACTGAACAAACAGGAAAATGTAAACTGATGAGGCCACGGAGTCACCTAGTGCAG	21700 fluorescence intensity (a.u.)
TTTGATAATTTTATCAAAAGATGGTATGGTTCGATATTGTCGGAGTCACCTAGTGCAG	9140 fluorescence intensity (a.u.)
TGATAAATTTGATGTTTATATGTTAAATTATAGTAGTTTGCGGAGTCACCTAGTGCAG	17600 fluorescence intensity (a.u.)
CATAACAGCAATCTCAAGCAGGAGTTCCATTGGATTACCTCGGAGTCACCTAGTGCAG	3660 fluorescence intensity (a.u.)
TAAGACTTAAATAAATAGATAAATTAAATATTTGATTAGACGGAGTCACCTAGTGCAG	10600 fluorescence intensity (a.u.)
GTAAAATTACTCTCAAACTAATTGCATAACGAACTCTACACGGAGTCACCTAGTGCAG	20000 fluorescence intensity (a.u.)
AAGAAAATTATCTTGAATCAACATTTATACGATCCATTGACGGAGTCACCTAGTGCAG	5400 fluorescence intensity (a.u.)
AGATAGCCAATTGATTATACCATGATACCCTTAGGGTTCCCGGAGTCACCTAGTGCAG	12000 fluorescence intensity (a.u.)
TTAAACTAAATCAGGTTGCTCAAGAGGTGATAAGTTTGGTCGGAGTCACCTAGTGCAG	3490 fluorescence intensity (a.u.)
TTGTATTGCTAATAAATTGACCAGCTCATGTAGAATACGTCGGAGTCACCTAGTGCAG	14000 fluorescence intensity (a.u.)
TCAGTGATAGGCGAATTTTCCAGGATTTAACGGCGTTGTGCGGAGTCACCTAGTGCAG	9140 fluorescence intensity (a.u.)
ACACTGTAACTATAATAATTACATTGTTACTTATATGTAACGGAGTCACCTAGTGCAG	4460 fluorescence intensity (a.u.)
GACCAACGGTGATTATTAACATGATCTATATCTATCTATCCGGAGTCACCTAGTGCAG	5820 fluorescence intensity (a.u.)
AGACTAATGATGTTACTAATCTGCATCTAATTACGTGATACGGAGTCACCTAGTGCAG	11700 fluorescence intensity (a.u.)
CATATGATTTATAAGCTGGTGGATTTCATGTCTTAAGTTTCGGAGTCACCTAGTGCAG	18000 fluorescence intensity (a.u.)
GAACTGATCAATTATTAGTTGAGCTGAGCTGAGCTTATAACGGAGTCACCTAGTGCAG	6130 fluorescence intensity (a.u.)
CAAATTAATTAGTTCATCAAATCTACCATTGAATATATATCGGAGTCACCTAGTGCAG	25400 fluorescence intensity (a.u.)
CCTAATAATTTGGAAAGAGCCGGCTTGAATGGGGTGGATTCGGAGTCACCTAGTGCAG	5400 fluorescence intensity (a.u.)
AGTTGATGAGAATTCTGTCAAACCGGAGGGTGTGAAGTGACGGAGTCACCTAGTGCAG	4080 fluorescence intensity (a.u.)
GTAATAATTTAATGGAGAAGGGGTCATAGTTAATTGCCTACGGAGTCACCTAGTGCAG	15800 fluorescence intensity (a.u.)
GTGGATTGATTCTCGGTCTCTTATTGTCCCTATCACGAATCGGAGTCACCTAGTGCAG	38700 fluorescence intensity (a.u.)
TTGATTAATATTATGTGTACACAAAGTTGTCACCATCCATCGGAGTCACCTAGTGCAG	18700 fluorescence intensity (a.u.)
TGTCAGTTATCTCGTTGGAATGATATATCGTTTTGTACTACGGAGTCACCTAGTGCAG	3520 fluorescence intensity (a.u.)
GTTGTGATTGTCCAATGCAACATGATGAAGAGGGGAATAACGGAGTCACCTAGTGCAG	8900 fluorescence intensity (a.u.)
TAATGATTAAGACTGAAAAGTTTATAAGTTAGAGCTATATCGGAGTCACCTAGTGCAG	16300 fluorescence intensity (a.u.)

Sequence	binding signal
CTGTAGGACTAAATCAATCTAGCAAATGAATGGTGGCACACGGAGTCACCTAGTGCAG	4130 fluorescence intensity (a.u.)
CCTGATAAACAAACACACATACATTGGCACATGGCATTTGCGGAGTCACCTAGTGCAG	7870 fluorescence intensity (a.u.)
ACAATTTACTCATTTATTTATTTATTTATTTATGTATGTACGGAGTCACCTAGTGCAG	5980 fluorescence intensity (a.u.)
ATCAATCAATAACTCTCAAATGCCTGGTTTGTAAAACAAACGGAGTCACCTAGTGCAG	4660 fluorescence intensity (a.u.)
ACTATTCTGTTAAGTTGATTGAGAATGGTAAATTCCATTTCGGAGTCACCTAGTGCAG	15600 fluorescence intensity (a.u.)
TAGATTATCAGTTTTGCATTCAGATTATCAGTTTTGCCAACGGAGTCACCTAGTGCAG	6140 fluorescence intensity (a.u.)
ATCAATCACTACTGCATATTACTATAATCTCCTCTATACTCGGAGTCACCTAGTGCAG	5200 fluorescence intensity (a.u.)
GATTAAACCATTAACATATTTTAACATATTTGACCAACACCGGAGTCACCTAGTGCAG	3250 fluorescence intensity (a.u.)
TTGAGATTGAGAAACTCGTGAGCTCCATCCGCAACCGCAACGGAGTCACCTAGTGCAG	7600 fluorescence intensity (a.u.)
TTAATGCATAATTAACTACTCTATCCGTCCCAGAATGTAACGGAGTCACCTAGTGCAG	15200 fluorescence intensity (a.u.)
CAACACTTAATTATTTGCAATTAATCTAATTGCATATATACGGAGTCACCTAGTGCAG	28200 fluorescence intensity (a.u.)
ATGACATGGATTCAATTAACCCTATGTTATTACCTTGACGCGGAGTCACCTAGTGCAG	13000 fluorescence intensity (a.u.)
AGATTAATTAGTCTTAATAAATTCGTCTCGCGGTTTACTGCGGAGTCACCTAGTGCAG	34200 fluorescence intensity (a.u.)
TTTTCAATTATTATATTAATTATAATAATAATCCCCGCAACGGAGTCACCTAGTGCAG	42500 fluorescence intensity (a.u.)
GTGTATAATCTGATCTTCTGATGAGCATGATTCGGGGTCTCGGAGTCACCTAGTGCAG	3440 fluorescence intensity (a.u.)
TACAAATGTAATTTTAGTTATAAGGCACTGTAATTTTAGTCGGAGTCACCTAGTGCAG	3910 fluorescence intensity (a.u.)
CTCAATGATATAATTATGGTGCAAATAATGCCTATCAACGCGGAGTCACCTAGTGCAG	23200 fluorescence intensity (a.u.)
GCACGATGATTTTAGTGGCTTTGTTGGCGCGAGTTGGGTGCGGAGTCACCTAGTGCAG	3450 fluorescence intensity (a.u.)
ACTGCAATCAGCCGAAGTTTTCTGGCCCAATCTGTCGGCCCGGAGTCACCTAGTGCAG	3970 fluorescence intensity (a.u.)
ATATGATTATTAATATTTTCTCCGTATTTTAATATATGACCGGAGTCACCTAGTGCAG	27400 fluorescence intensity (a.u.)
TGCCACATCAATCAAAACAATCACTTGTACTGTCTCAGGACGGAGTCACCTAGTGCAG	24900 fluorescence intensity (a.u.)
TTTTCCAAATGTTTCCAATCAGCTTCTGTCTACTTTCTGACGGAGTCACCTAGTGCAG	7060 fluorescence intensity (a.u.)
AGAAAACAAAACTGATTTATGTCAAATTCTAGTGAGAATACGGAGTCACCTAGTGCAG	4270 fluorescence intensity (a.u.)
ATTTAGAATGATTGCAATCTATCCTAGTAAGATTTAGATTCGGAGTCACCTAGTGCAG	46800 fluorescence intensity (a.u.)
TGTGCAACTCAATCAATCCAAAACACGTCCCTTGTCATTCCGGAGTCACCTAGTGCAG	4430 fluorescence intensity (a.u.)
TTGCAAAATTTAAAATTATGTTGTCATTTTAATATATTTGCGGAGTCACCTAGTGCAG	6150 fluorescence intensity (a.u.)
CATCGATCACCATTAGACTAATTTAGAGCTCTTGCTCGATCGGAGTCACCTAGTGCAG	6980 fluorescence intensity (a.u.)
